# Experimental data from PMC4336329 (PLoS ONE, 2015).
# About 14,000 (4.5%) of roughly 310,000 compounds showed an effect of 50% or more. The effect is printed as a negative number. Some of the results follow.
# Target: human ether-à-go-go-related gene (hERG) potassium channel (human, UniProt Q12809)
# Assay: primary screen, population patch clamp on CHO cells stably expressing hERG
# 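Note: peak tail current of the secondary pulse compared with the same well before compound.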
# Chain of human ether-à-go-go-related gene (hERG) potassium channel (Q12809 whole entry, looked up): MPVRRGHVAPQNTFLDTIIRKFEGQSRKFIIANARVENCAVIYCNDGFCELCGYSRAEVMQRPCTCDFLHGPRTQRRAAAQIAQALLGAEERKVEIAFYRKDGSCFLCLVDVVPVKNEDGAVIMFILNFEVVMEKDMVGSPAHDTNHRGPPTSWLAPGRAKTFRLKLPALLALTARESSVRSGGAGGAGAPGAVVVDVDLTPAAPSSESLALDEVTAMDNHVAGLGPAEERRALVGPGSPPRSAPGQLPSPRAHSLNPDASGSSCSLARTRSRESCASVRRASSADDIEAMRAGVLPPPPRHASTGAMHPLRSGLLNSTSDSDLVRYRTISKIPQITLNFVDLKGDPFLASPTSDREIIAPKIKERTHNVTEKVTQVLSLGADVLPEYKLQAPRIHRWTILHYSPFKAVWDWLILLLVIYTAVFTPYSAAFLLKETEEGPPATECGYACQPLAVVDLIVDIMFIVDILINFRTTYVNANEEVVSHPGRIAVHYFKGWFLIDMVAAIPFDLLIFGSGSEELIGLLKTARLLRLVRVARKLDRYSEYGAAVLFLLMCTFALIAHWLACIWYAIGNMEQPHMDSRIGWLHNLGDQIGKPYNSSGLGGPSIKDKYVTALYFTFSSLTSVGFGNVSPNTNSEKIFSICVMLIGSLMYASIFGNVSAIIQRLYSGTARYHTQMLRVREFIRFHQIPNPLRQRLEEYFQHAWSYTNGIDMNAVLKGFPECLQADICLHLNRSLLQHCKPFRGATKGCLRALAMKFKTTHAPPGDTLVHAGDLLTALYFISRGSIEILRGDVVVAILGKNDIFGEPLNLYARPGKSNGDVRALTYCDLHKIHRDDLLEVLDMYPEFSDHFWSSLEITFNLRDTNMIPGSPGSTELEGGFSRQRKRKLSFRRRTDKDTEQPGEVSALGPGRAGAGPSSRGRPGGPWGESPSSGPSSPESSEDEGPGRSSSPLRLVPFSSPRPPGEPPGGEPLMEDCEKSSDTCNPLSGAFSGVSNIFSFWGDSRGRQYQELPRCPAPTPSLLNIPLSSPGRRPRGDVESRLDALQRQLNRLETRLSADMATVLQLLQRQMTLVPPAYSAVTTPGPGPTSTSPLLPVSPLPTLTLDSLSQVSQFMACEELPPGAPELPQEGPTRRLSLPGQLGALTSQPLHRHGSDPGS
row,SMILES,"hERG current change (%, negative = inhibition) at 10uM"
1,NC(=O)c1ccc(NC(=O)COC(=O)CCC(=O)c2ccc(Cl)cc2)cc1,7.31%
2,CCN(CC)S(=O)(=O)c1ccc2c(c1)N(CC(=O)NCCc1ccc(S(N)(=O)=O)cc1)C(=O)CO2,-1.7%
3,CCN(CC)c1ccc(NC(=O)c2ccc3c(c2)OCO3)c(C)c1,19.5%
4,CCOc1ccc2[nH]c3c(=O)n(CCc4ccc(OC)cc4)cnc3c2c1,-22.1%
5,CCC(=O)Nc1ccc(NC(=S)Nc2ccccc2)cc1,-13.4%
6,Cc1ccc(NC(=O)CN(C)C(=O)CN2C(=O)NC(C)(c3ccccc3)C2=O)cc1 (centres unmarked),1.11%
7,COC(=O)[C@@H]1[C@H]2C[C@H]3c4[nH]c5ccccc5c4CCN3C[C@@H]2CC[C@@H]1O.Cl,-22%
8,CCOC(=O)c1ccc(NC(=S)NC(=O)C2CCCC2)cc1,1.18%
9,NC(=O)CN(c1ccc(Oc2ccccc2)cc1)S(=O)(=O)c1ccccc1,2.54%
10,COc1cc([N+](=O)[O-])ccc1NC(=O)Nc1nc2c(s1)CCCC2,11.7%
11,CCCN(CCC)S(=O)(=O)c1ccc(C(=O)NNc2nc(-c3ccccc3)c3cc(Br)ccc3n2)cc1,26.2%
12,O=C(NCc1ccco1)c1cc(-c2cccs2)on1,-12.6%
13,Cc1cc(C)nc(SCC(=O)NCC2COc3ccccc3O2)n1 (centres unmarked),-0.733%
14,O=C(Nc1ccc(Cl)cc1)Nc1cccc(C(=O)O)c1,7.8%
15,CCOC(=O)c1ccc(CNC(=O)CSc2nc(NC(=O)c3ccccc3)c3c(C)c(C)oc3n2)cc1,-4.21%
16,O=C(Nc1ccc2c(c1)OCCO2)c1ccc(Cl)cc1Cl,17.3%
17,Cc1onc(-c2ccccc2)c1C(=O)NCc1ccccn1,8.66%
18,C/C=C\C(=O)Nc1cccc(C2=NOC3(C2)C[C@@H](C(N)=O)N(C(=O)c2ccc(OC)cc2)C3)c1 (some centres unmarked),-3.93%
19,CCN(CC)C(=O)CN(c1ccc(F)c(Cl)c1)S(C)(=O)=O,2.55%
20,CCC(Sc1ncnc2c1c(-c1ccccc1)cn2-c1ccc(OC)cc1)C(=O)OC (centres unmarked),-7.16%
21,CCCc1nnc(NC(=O)c2cccc(OC)c2)s1,-2.69%
22,CCCN1CC23C=CC(O2)C(C(=O)O)C3C1=O (centres unmarked),9.39%

row,SMILES,"hERG current change (%, negative = inhibition) at 10uM"
1,CC(Oc1ccccc1)C(=O)N1CCC2(CC1)CC(=O)c1ccccc1O2 (centres unmarked),-65.7%
2,COC(=O)c1ccc(-n2c(C)cc(/C=N/n3cnnc3)c2C)cc1,4.18%
3,COc1ccccc1NC(=S)NCc1ccc(F)cc1,-2.09%
4,CCc1nc(SCc2ccccn2)c2c(=O)n(C)c(=O)n(C)c2n1,0.896%
5,CSc1ncc(C(=O)O)n1-c1ccc(F)cc1,3.73%
6,CCC(=O)Nc1ccc(NC(=O)c2cc3ccccc3o2)cc1,-2.45%
7,Cc1ccc(SC(C)c2nc(-c3cccnc3)no2)cc1 (centres unmarked),-30.5%
8,CC(C)(C)NC(=O)/C(=C\c1ccccc1F)NC(=O)c1ccc([N+](=O)[O-])cc1,-35.3%
9,Cc1ccc(N=C2NC(=O)CS2)c(C)c1,6.77%
10,COc1ccc(OCc2cc(C(=O)N3CCN(C4CCCC4)CC3)no2)c(Cl)c1,-29.6%
11,CS(=O)(=O)c1cnc(-c2ccccc2)nc1Sc1ccc(F)cc1,8.21%
12,O=C(NCCN1CCOCC1)C1CCCN(S(=O)(=O)c2ccc(F)cc2)C1 (centres unmarked),-2.52%
13,Cc1csc(NC(=O)C2CCN(S(=O)(=O)c3ccc4c(c3)oc(=O)n4C)CC2)n1,-11.5%
14,CC(C)CNC(=O)COC(=O)c1cncc(Br)c1,10%
15,O=C(O)CCCn1cc(NC(=O)c2cccc(F)c2)cn1,-18.9%
16,O=C(CCN1N=C(c2ccccc2)CCC1=O)NCCCN1CCOCC1,21.2%
17,Cc1cc(C)nc(SCCc2ccncc2)n1.Cl,9.82%
18,CCNC(=S)NNC(=O)c1csc2c1CCC(C)C2 (centres unmarked),7.64%
19,O=C(NCCSc1ccc(Br)cc1)c1ccccc1,-7.12%
20,COc1ccccc1NC(=S)N(Cc1ccc(C)cc1)Cc1ccccn1,-39.1%
21,O=C(CNc1ccc(F)cc1Cl)Nc1cccc(S(=O)(=O)N2CCCCC2)c1,9.81%
22,CCCCCCCN1N=C(C)C(C(=O)c2ccccc2)C1=O (centres unmarked),-5.06%
